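Following 48 hours of exposure in 96-well plates, responses at five concentrations were used to interpolate endpoints linearly. At the GI50, growth is halved. TGI: total growth inhibition.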
tested on: NCI-H322M lung; assay: inhibition of tumour cell growth, NCI panel, 48 h

First: Cc1cn(-c2cc(NC(=O)c3cncc(C#Cc4cnc5ccc(O[C@@H]6CCOC6)nn45)c3)cc(C(F)(F)F)c2)cn1
Second: Nc1ccccc1NC(=O)c1ccc(NC(=O)C/C=C/c2cccnc2)cn1
The GI50 of the first is 6.8-fold lower: 277 nM for the first, 1870 nM for the second.

`C#C[C@]1(O)CC[C@H]2[C@@H]3CC=C4c5sc(N6CCN(C)CC6)nc5CC[C@]4(C)[C@H]3CC[C@@]21C` showed a GI50 of 1860 nM.

First: Cc1cn(-c2cc(NC(=O)c3cncc(C#Cc4cnc5ccc(O[C@@H]6CCOC6)nn45)c3)cc(C(F)(F)F)c2)cn1
Second: Nc1ccccc1NC(=O)c1ccc(NC(=O)C/C=C/c2cccnc2)cn1
The TGI of the first is lower: 1030 nM for the first, over 50000 nM for the second.

With `C#C[C@]1(O)CC[C@H]2[C@@H]3CC=C4c5sc(N6CCN(C)CC6)nc5CC[C@]4(C)[C@H]3CC[C@@]21C` the TGI was 3810 nM.

— PubChem BioAssay (NCI)
